For 172 sequences, binding signal results are on record in PMC6212790.

Some of the results follow. At the low end of the ranking, values are background and their order means little.

In this assay the target is T1, GST-Rok-C97-191 (UniProt O34857).
T1 sequence: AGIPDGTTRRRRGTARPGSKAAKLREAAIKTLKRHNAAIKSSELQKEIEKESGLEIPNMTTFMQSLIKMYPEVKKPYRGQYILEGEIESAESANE
Kind of assay: protein binding microarray.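 Further: rank score from −0.5 (least bound) to 0.5 (best bound).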 Particulars: Rok is a gene silencer of Bacillus subtilis; high values mean tight binding; most listed sequences are background and not binding sites; double strand, one strand shown.
Turning to CGTACTAA, the binding signal was found to be 0.231 E-score.
As for TGAGGACA, the figure is 0.0106 E-score.
With CACAGGAG the figure was -0.175 E-score; with CTACGTCC, 0.158 E-score.
As for GCAGGCTA, the figure is -0.198 E-score; as for GAACTAAC, 0.104 E-score; as for TAATTAAA, 0.244 E-score.
CCCATGGG registered a binding signal of -0.301 E-score.
As for GACGCAAC, the figure is 0.178 E-score.
As for GTCGCAAA, the figure is -0.0493 E-score; as for CATAAGTC, -0.0259 E-score; as for CGGTACAG, -0.00773 E-score.
For CATCGCAC, the binding signal was -0.108 E-score.
With CGGTCTAG the figure was -0.0476 E-score; with CATTATCG, 0.121 E-score; with ATCGCGTG, -0.192 E-score.
With AGACCATA the figure was 0.123 E-score; with GAATACGC, -0.102 E-score; with CTAGAGGA, -0.154 E-score.
In turn, AAGTTCAG had a binding signal of 0.0688 E-score.
As for ACGCTACA, the figure is 0.123 E-score; as for AGCTTGCG, -0.087 E-score.
Sequence CCTTAAGA returned a binding signal of -0.0838 E-score.
CTATGCCC gave a binding signal of -0.171 E-score.
With AATGCCCT the figure was 0.0279 E-score.
In turn, GCTCGGCC displayed a binding signal of -0.227 E-score.
With GGTTCTTA the figure was -0.0251 E-score; with CCACCGGA, 0.0302 E-score.
With ACACGACA the figure was 0.0427 E-score; with ACCTCGCC, -0.189 E-score; with TGATTACA, 0.129 E-score.
With ATGAGTTG the figure was -0.00844 E-score; with GATCCTGC, -0.00642 E-score; with ACGCTGAC, -0.0879 E-score.
Turning to TCTACAAA, the binding signal was determined as 0.133 E-score.
As for CGAGCAGA, the figure is -0.23 E-score; as for GAGCTCAC, -0.0849 E-score; as for TATTTCGA, 0.165 E-score.
CGCGCGCA returned a binding signal of 0.114 E-score.
With ACGAGTAC the figure was 0.195 E-score; with GGAACAAA, 0.0445 E-score.
As for CACTCAGA, the figure is -0.218 E-score; as for AGCACGTC, -0.0472 E-score; as for GAATTTCC, 0.13 E-score.
With ACGTCCCC the figure was -0.276 E-score; with CGCCAATC, -0.0908 E-score; with GCCCCGAA, -0.136 E-score.
The sequence ACTTTTAG displayed a binding signal of 0.0335 E-score.
As for GACAGGCC, the figure is -0.254 E-score; as for AATGACAC, -0.0543 E-score.
As for CATTTTAC, the figure is 0.315 E-score; as for CCCATAAG, -0.179 E-score; as for GACCGGAA, -0.0227 E-score.
With AGGATCCT the figure was -0.243 E-score.
Take CTGCCAAC: the binding signal was -0.134 E-score.
With AGCTTCCA the figure was -0.0838 E-score; with ACGTAGTA, 0.188 E-score; with GAACATAC, 0.075 E-score.
On to TACGCGCA, for which the binding signal was -0.153 E-score.
With CAGGTATC the figure was -0.0408 E-score; with GGAATACA, 0.118 E-score.
As for GATATCGA, the binding signal stood at 0.223 E-score.
With ACTACAAT the figure was 0.329 E-score; with AGACAGCC, -0.267 E-score.
As for AAGATATC, the figure is 0.2 E-score; as for ATCGTCGG, -0.118 E-score; as for AATTTCAG, 0.153 E-score.
With AATAAGCC the figure was 0.137 E-score; with AATACTCG, 0.0344 E-score; with ATCTCCCC, -0.124 E-score.
For the sequence AATTCAAG, the binding signal amounted to 0.124 E-score.
With CACTGGAC the figure was -0.168 E-score.
Regarding AAGACCTC, the binding signal was -0.317 E-score.
As for ATGGTAAG, the binding signal came out at 0.0888 E-score.
With CGCTAACA, the binding signal came to 0.105 E-score.
Turning to CCTTCTCA, the binding signal is -0.22 E-score.
With TCACAACA the figure was -0.0759 E-score; with TATATAGA, 0.397 E-score; with TCGTGTCA, -0.259 E-score.
As for CCATACCC, the figure is -0.192 E-score; as for CATATTCA, -0.062 E-score.
With CACAAGGG the figure was -0.237 E-score.
The sequence CTTAACTA came in with a binding signal of 0.273 E-score.
With CCCAAAAC the figure was -0.239 E-score.
For the sequence GGGCATCA, the binding signal is -0.0798 E-score.
As for AAGGGTTG, the binding signal was -0.169 E-score.
With CCGATGCG the figure was -0.235 E-score; with AGATTCTA, 0.356 E-score; with CGAGTCCG, -0.192 E-score.
As for CCAAATAG, the figure is -0.0212 E-score; as for AGTAGCAT, 0.253 E-score.
With AACGATGT the figure was -0.0901 E-score; with GATCCTCC, -0.207 E-score.
CGTACCGC registered a binding signal of -0.237 E-score.
As for GTGTGCGA, the figure is -0.272 E-score.
With ACAACGGC the figure was -0.00269 E-score; with CCCCTCCA, -0.402 E-score; with CACATCGA, 0.00946 E-score.
As for AATTAACA, the figure is 0.0681 E-score; as for GCCTCCAA, -0.208 E-score.
AACGTTTC yielded a binding signal of -0.125 E-score.
As for CTGGTTCC, the figure is -0.123 E-score.
As for GTCCCGGA, the figure is -0.258 E-score.
As for AAGAGGGG, the figure is -0.374 E-score; as for CTGGCGTC, -0.23 E-score.
GTAAGCAC: the binding signal was -0.139 E-score.
Sequence GCGCTACC displayed a binding signal of -0.0494 E-score.
Regarding AGTTCCTC, the binding signal is -0.174 E-score.
With CTTAACAA, the binding signal amounted to 0.136 E-score.
Turning to AAACTAGG, the binding signal came out at 0.285 E-score.
With CACACTTA the figure was 0.161 E-score.
As for AATTACCG, the figure is 0.297 E-score; as for AGGTCACG, -0.0477 E-score; as for ATGTCCCA, -0.162 E-score.
With AAATCGGG the figure was -0.165 E-score.
The sequence GCGGGGAA registered a binding signal of -0.189 E-score.
As for GAATTTGC, the figure is 0.0297 E-score.
On to CCCAGGTC, for which the binding signal is -0.395 E-score.
As for AGCCACTC, the figure is -0.0578 E-score; as for ACGACATG, 0.133 E-score.
As for AAGGGACC, the figure is -0.203 E-score.
With AGGACAAC the figure was 0.0901 E-score; with CATATGTC, 0.00539 E-score; with CTCTGTGC, -0.248 E-score.
Sequence ACAAGGCG had a binding signal of -0.233 E-score.
As for AACGGTTG, the figure is 0.0504 E-score.
With GTCTTCCA the figure was -0.213 E-score; with ATACATTC, 0.27 E-score; with CAAGTTGC, 0.0305 E-score.
The sequence AATACGGA came in with a binding signal of 0.179 E-score.
As for TAAGATTA, the figure is 0.199 E-score; as for GCTTCTTA, 0.0351 E-score; as for CGTGCCAA, -0.212 E-score.
For CCTACACG, the binding signal is -0.065 E-score.
With ACGCGGCA the figure was -0.0324 E-score.
As for CCTGAGGA, the figure is -0.246 E-score; as for GATTCACA, 0.101 E-score.
As for GACACGAC, the figure is -0.0701 E-score; as for AAGTTTAG, 0.124 E-score.
ACCGTGTC displayed a binding signal of -0.0441 E-score.
With GATCAGCC the figure was -0.319 E-score.
As for GTGATCAC, the figure is -0.0759 E-score.
With GCGTATAA, the binding signal came out at 0.244 E-score.
As for AACGGTCA, the figure is -0.0986 E-score.
As for CAGACTTA, the figure is -0.0657 E-score; as for ACGTTTCA, -0.124 E-score; as for GCAACGCA, -0.217 E-score.
For GCCGCAAC, the binding signal was -0.128 E-score.
With AGAGGCCA the figure was -0.228 E-score; with CTTGTACC, -0.0277 E-score.
With AAACGAAA the figure was -0.0606 E-score; with AGTTATGG, 0.0628 E-score.
CGTTGAAA gave a binding signal of 0.0716 E-score.
AGTACAGG displayed a binding signal of -0.0501 E-score.
With CAAAAATG the figure was -0.0928 E-score; with CTCCCACA, -0.00235 E-score; with TCAAAGCA, 0.0132 E-score.
Consider CAGAACGG, for which the binding signal turned out to be 0.0535 E-score.
As to CTGGGGAC, the binding signal was -0.271 E-score.
The sequence CCCAGTAA registered a binding signal of -0.0491 E-score.
In turn, ACAGTTCT registered a binding signal of 0.145 E-score.
As for GCAATGGC, the figure is -0.228 E-score; as for ACGAAGCC, -0.172 E-score.
With CGGGAGAA the figure was -0.00882 E-score.
TCGGCGCA gave a binding signal of -0.143 E-score.
With AATCAGGA the figure was -0.335 E-score; with ACCCATCC, -0.127 E-score; with GTGTCTTA, -0.102 E-score.
In turn, ACATTCCT came in with a binding signal of 0.0128 E-score.
With TGTCGGAA the figure was -0.0923 E-score.
In the case of AACGTGCC, the binding signal was -0.218 E-score.
With CTCCGGTC the figure was 0.00767 E-score.
